# Test results as given in the supplement of paper PMC4604168 (melanoma cell lines).
# This is one part of the list. Many values rest on one well or one pass, so single values are uncertain.
# Test system: A101D
# Assay: cell count relative to DMSO control; melanoma cells; higher = more viable cells
# Details: library dose: standard library concentration; 72 h
# 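Also: cells treated in 1,536-well plates, then fixed and DAPI-stained, with nuclei counted from automated high-throughput microscope images.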
row,SMILES,cell count
1,"COc1cc2c(Oc3ccc4[nH]c(C)cc4c3F)ncnc2cc1OCCCN1CCCC1 [cediranib] + O=C(O)C(=O)Nc1sc2c(c1C(=O)O)CCNC2 [TCS401] (first compound 2 µM, partner dose 8.33333 µM)",110%
2,"COc1cc2c(Oc3ccc4[nH]c(C)cc4c3F)ncnc2cc1OCCCN1CCCC1 [cediranib] + COc1ccc(COc2ccc(Cc3cnc(N)nc3N)cc2OC)cc1 [GW2580] (first compound 2 µM, partner dose 5 µM)",112%
3,"NC(=O)c1ccc(N(C(N)=O)c2c(F)cccc2F)nc1-c1ccc(F)cc1F + Oc1cc(-c2nc(-c3ccccc3)[nH]c2-c2ccncc2)ccc1Cl [L779450] (first compound 2 µM, partner dose 1 µM)",67%
4,"NC(=O)c1ccc(N(C(N)=O)c2c(F)cccc2F)nc1-c1ccc(F)cc1F + N#Cc1c(O)c2c(-c3ccc(-c4ccccc4O)cc3)csc2[nH]c1=O [A769662] (first compound 2 µM, partner dose 10 µM)",103%
5,"CC(C)(C)c1cnc(CSc2cnc(NC(=O)C3CCNCC3)s2)o1 + O=C(Nc1ccccc1)c1cc([N+](=O)[O-])ccc1Cl [GW9662] (first compound 0.05 µM, partner dose 10 µM)",83.5%

# Test system: A2058
# Assay: as above
# Details: library dose: standard library concentration; 72 h
row,SMILES,cell count
1,"CN(NC(=O)CC(=O)NN(C)C(=S)c1ccccc1)C(=S)c1ccccc1 + COc1ccc2c(c1)CCC1C2CCC2(C)C(NCCCCCCN3C(=O)C=CC3=O)CCC12 [U73122] (first compound 0.03 µM, partner dose 2 µM)",81.4%
2,"COc1cc2c(Oc3ccc4[nH]c(C)cc4c3F)ncnc2cc1OCCCN1CCCC1 [cediranib] + Cn1cc(/C=C2\C(=O)Nc3cccnc32)c2ccccc21 [GW441756] (first compound 2 µM, partner dose 2 µM)",90.1%
3,"COc1cc2c(Oc3ccc4[nH]c(C)cc4c3F)ncnc2cc1OCCCN1CCCC1 [cediranib] + COC(=O)c1sccc1S(=O)(=O)Nc1ccc(Nc2ccccc2)cc1OC [GSK0660] (first compound 2 µM, partner dose 5 µM)",93.8%
4,"COc1cc2c(Oc3ccc4[nH]c(C)cc4c3F)ncnc2cc1OCCCN1CCCC1 [cediranib] + COc1ccc2c(c1)CCC1C2CCC2(C)C(NCCCCCCN3C(=O)C=CC3=O)CCC12 [U73122] (first compound 2 µM, partner dose 2 µM)",92.2%
5,"CCc1ccc(CCOc2ccc(CC3SC(=O)NC3=O)cc2)nc1 (centres undefined) [pioglitazone] + O=c1cc(-c2cccc3c2Sc2ccccc2S3)oc(N2CCOCC2)c1 [KU55933] (first compound 10 µM, partner dose 5 µM)",93.1%
6,"CN(NC(=O)CC(=O)NN(C)C(=S)c1ccccc1)C(=S)c1ccccc1 + O=C(O)C(=O)Nc1sc2c(c1C(=O)O)CCNC2 [TCS401] (first compound 0.03 µM, partner dose 8.33333 µM)",14.7%
7,"CCc1ccc(CCOc2ccc(CC3SC(=O)NC3=O)cc2)nc1 (centres undefined) [pioglitazone] + COc1cc(N2CCC(N3CCN(C)CC3)CC2)ccc1Nc1ncc(Cl)c(Nc2ccccc2S(=O)(=O)C(C)C)n1 [NVP-TAE684] (first compound 10 µM, partner dose 0.4 µM)",78.4%
8,"NC(=O)c1ccc(N(C(N)=O)c2c(F)cccc2F)nc1-c1ccc(F)cc1F + CCN(CC)CCCCNc1ncc2cc(-c3cc(OC)cc(OC)c3)c(NC(=O)NC(C)(C)C)nc2n1 [PD173074] (first compound 2 µM, partner dose 0.5 µM)",121%
9,"CN(NC(=O)CC(=O)NN(C)C(=S)c1ccccc1)C(=S)c1ccccc1 + CCc1ccc(CCOc2ccc(CC3SC(=O)NC3=O)cc2)nc1 [pioglitazone] (first compound 0.03 µM, partner dose 10 µM)",23.5%
10,"CC(C)(C)c1cnc(CSc2cnc(NC(=O)C3CCNCC3)s2)o1 + COc1cc(N2CCC(N3CCN(C)CC3)CC2)ccc1Nc1ncc(Cl)c(Nc2ccccc2S(=O)(=O)C(C)C)n1 [NVP-TAE684] (first compound 0.05 µM, partner dose 0.4 µM)",40%
11,"Cc1ccc(NC(=O)c2cccc(N(C)C)c2)cc1NC(=O)c1ccc(O)cc1 + CCN(CC)CCCCNc1ncc2cc(-c3cc(OC)cc(OC)c3)c(NC(=O)NC(C)(C)C)nc2n1 [PD173074] (first compound 10 µM, partner dose 0.5 µM)",86.2%
12,"CN(NC(=O)CC(=O)NN(C)C(=S)c1ccccc1)C(=S)c1ccccc1 + COc1ccc(COc2ccc(Cc3cnc(N)nc3N)cc2OC)cc1 [GW2580] (first compound 0.03 µM, partner dose 5 µM)",8.83%
13,"Cc1ccc(NC(=O)c2cccc(N(C)C)c2)cc1NC(=O)c1ccc(O)cc1 + O=S(=O)(c1ccccc1)N(CC(F)(F)F)c1ccc(C(O)(C(F)(F)F)C(F)(F)F)cc1 [T0901317] (first compound 10 µM, partner dose 7 µM)",86.3%
14,"NC(=O)c1ccc(N(C(N)=O)c2c(F)cccc2F)nc1-c1ccc(F)cc1F + COc1ccc(-c2ccc3c(N4CCOCC4)nc(N4C[C@@H](C)O[C@@H](C)C4)nc3n2)cc1CO [KU0063794] (first compound 2 µM, partner dose 0.1 µM)",88%
15,"CCCCCCCCc1ccc(CCC(N)(CO)CO)cc1 [fingolimod] + CCN(CC)CCCCNc1ncc2cc(-c3cc(OC)cc(OC)c3)c(NC(=O)NC(C)(C)C)nc2n1 [PD173074] (first compound 10 µM, partner dose 0.5 µM)",7.83%
16,"Cc1ccc(NC(=O)c2cccc(N(C)C)c2)cc1NC(=O)c1ccc(O)cc1 + CCCCCCCCCCCC1=C(O)C(=O)C=C(O)C1=O [Embelin] (first compound 10 µM, partner dose 6 µM)",91.1%
17,"CCCCCCCCc1ccc(CCC(N)(CO)CO)cc1 [fingolimod] + O=C(O)C(=O)Nc1sc2c(c1C(=O)O)CCNC2 [TCS401] (first compound 10 µM, partner dose 8.33333 µM)",6.14%
18,"CN(NC(=O)CC(=O)NN(C)C(=S)c1ccccc1)C(=S)c1ccccc1 + CC(C)CCN1c2nc(Nc3cc(F)c(O)c(F)c3)ncc2N(C)C(=O)C1C [BID1870] (first compound 0.03 µM, partner dose 1 µM)",17.3%
19,"CCc1ccc(CCOc2ccc(CC3SC(=O)NC3=O)cc2)nc1 (centres undefined) [pioglitazone] + CC(C)CCN1c2nc(Nc3cc(F)c(O)c(F)c3)ncc2N(C)C(=O)C1C [BID1870] (first compound 10 µM, partner dose 1 µM)",91.4%
20,"NC(=O)c1ccc(N(C(N)=O)c2c(F)cccc2F)nc1-c1ccc(F)cc1F + COC(=O)c1sccc1S(=O)(=O)Nc1ccc(Nc2ccccc2)cc1OC [GSK0660] (first compound 2 µM, partner dose 5 µM)",74.1%
21,"CCCCCCCCc1ccc(CCC(N)(CO)CO)cc1 [fingolimod] + COC(=O)c1sccc1S(=O)(=O)Nc1ccc(Nc2ccccc2)cc1OC [GSK0660] (first compound 10 µM, partner dose 5 µM)",4.55%
22,"CC(C)(C)c1cnc(CSc2cnc(NC(=O)C3CCNCC3)s2)o1 + O=C1NC(=O)/C(=C/c2ccc(-c3ccc(F)cc3O)o2)S1 [AS252424] (first compound 0.05 µM, partner dose 5 µM)",108%
23,"CN(NC(=O)CC(=O)NN(C)C(=S)c1ccccc1)C(=S)c1ccccc1 + Cn1cc(/C=C2\C(=O)Nc3cccnc32)c2ccccc21 [GW441756] (first compound 0.03 µM, partner dose 2 µM)",24.4%
24,"CC(C)(C)c1cnc(CSc2cnc(NC(=O)C3CCNCC3)s2)o1 + O=c1cc(-c2cccc3c2Sc2ccccc2S3)oc(N2CCOCC2)c1 [KU55933] (first compound 0.05 µM, partner dose 5 µM)",73.3%
25,"COc1cc2c(Oc3ccc4[nH]c(C)cc4c3F)ncnc2cc1OCCCN1CCCC1 [cediranib] + CCc1ccc(CCOc2ccc(CC3SC(=O)NC3=O)cc2)nc1 [pioglitazone] (first compound 2 µM, partner dose 10 µM)",84.2%
26,"CCCCCCCCc1ccc(CCC(N)(CO)CO)cc1 [fingolimod] + CCc1ccc(CCOc2ccc(CC3SC(=O)NC3=O)cc2)nc1 [pioglitazone] (first compound 10 µM, partner dose 10 µM)",3.4%
27,"NC(=O)c1ccc(N(C(N)=O)c2c(F)cccc2F)nc1-c1ccc(F)cc1F + c1cc(-c2cnn3cc(-c4ccc(OCCN5CCCCC5)cc4)cnc23)ccn1 [Dorsomorphin] (first compound 2 µM, partner dose 2 µM)",85.1%
28,"NC(=O)c1ccc(N(C(N)=O)c2c(F)cccc2F)nc1-c1ccc(F)cc1F + COc1cc(N2CCC(N3CCN(C)CC3)CC2)ccc1Nc1ncc(Cl)c(Nc2ccccc2S(=O)(=O)C(C)C)n1 [NVP-TAE684] (first compound 2 µM, partner dose 0.4 µM)",59.7%
29,"CC(C)(C)c1cnc(CSc2cnc(NC(=O)C3CCNCC3)s2)o1 + CCN(CC)CCCCNc1ncc2cc(-c3cc(OC)cc(OC)c3)c(NC(=O)NC(C)(C)C)nc2n1 [PD173074] (first compound 0.05 µM, partner dose 0.5 µM)",82.9%
